# Experimental data published in the supplement of paper PMC8728848.
# The list shows a part of the results.
# B1: AT5G01260(PC)(40) (Arabidopsis thaliana), Q9LFB0 (protein)
# chain: MIGIGRTLTSSSPSKIILEDLPPGIYRYGTEIFTSVPRKTFHHIKFLRLDSAQSSRILKPVPLRSSSIKDSQVNVEDEEIEASNKTVRVRFQLRKECVFGEHFFIVGDDPVFGGLWDPETALPLNWSDGNVWTVDLDLPVGRLVEFKLLLKAQTGEILWQPGPNRALETWETNKTIRICEDWDNADLQMMIEEDFVPYTNISSIGSEDEDEVLGSVQQNSSVVAVENAGYVSDESAQNSSFSIQSEKTMEPSNGALTAREVIKEAMFTEEESPVLVPGLIPLSDLDNEQVEVINEGKAETFPEVDKKQEPKAERNKKAKVKAISLFEKSEQEAVKSVEQRQYNAVEEEQQRLETEPLGTPDVLFENDIQWGRRTLYKLLSNFRLF
# Tests used:
# Test in all cases: glycan array binding signal (z-score within array); higher = stronger binding
# Details in all cases: glycan notation: IUPAC condensed, linker removed
# Fuc(a1-2)Gal = biological target: Fuc(a1-2)Gal
# How it was run: (§1)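 Glycan array data came from 3228 arrays in the Consortium for Functional Glycomics database, and only arrays with an available protein sequence were kept. Glycan names were put into IUPAC-condensed notation, and columns mapping to the same glycan were averaged. The binding signal is a within-array Z-score, averaged across arrays of one protein sequence run at different concentrations or buffers and across linkers. A negative Z-score can be read as non-binding.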
# Fuc(a1-2)Gal(b1-3)GalNAc = biological target: Fuc(a1-2)Gal(b1-3)GalNAc
# How it was run: as §1
# [1] = biological target: Fuc(a1-2)Gal(b1-3)GalNAc(a1-3)[Fuc(a1-2)]Gal(b1-4)Glc
# How it was run: as §1
# [2] = biological target: Fuc(a1-2)Gal(b1-3)GalNAc(a1-3)[Fuc(a1-2)]Gal(b1-4)GlcNAc
# How it was run: as §1
# [3] = biological target: Fuc(a1-2)Gal(b1-3)GalNAc(b1-3)Gal
# How it was run: as §1
# [4] = biological target: Fuc(a1-2)Gal(b1-3)GalNAc(b1-3)Gal(a1-4)Gal(b1-4)Glc
# How it was run: as §1
# [5] = biological target: Fuc(a1-2)Gal(b1-3)GalNAc(b1-4)[Neu5Ac(a2-3)]Gal(b1-4)Glc
# How it was run: as §1
# Fuc(a1-2)Gal(b1-3)GlcNAc = biological target: Fuc(a1-2)Gal(b1-3)GlcNAc
# How it was run: as §1
# [6] = biological target: Fuc(a1-2)Gal(b1-3)GlcNAc(b1-2)Man(a1-3)[Fuc(a1-2)Gal(b1-3)GlcNAc(b1-2)Man(a1-6)]Man(b1-4)GlcNAc(b1-4)GlcNAc
# How it was run: as §1
# [7] = biological target: Fuc(a1-2)Gal(b1-3)GlcNAc(b1-2)Man(a1-3)[Fuc(a1-2)Gal(b1-3)GlcNAc(b1-2)Man(a1-6)]Man(b1-4)GlcNAc(b1-4)[Fuc(a1-6)]GlcNAc
# How it was run: as §1
# [8] = biological target: Fuc(a1-2)Gal(b1-3)GlcNAc(b1-3)Gal(b1-4)Glc
# How it was run: as §1
# [9] = biological target: Fuc(a1-2)Gal(b1-3)GlcNAc(b1-3)GalNAc
# How it was run: as §1
# [10] = biological target: Fuc(a1-2)Gal(b1-3)GlcNAc(b1-3)[Fuc(a1-2)Gal(b1-3)GlcNAc(b1-6)]GalNAc
# How it was run: as §1
# [11] = biological target: Fuc(a1-2)Gal(b1-3)GlcNAc(b1-3)[Gal(b1-4)GlcNAc(b1-6)]Gal(b1-4)Glc
# How it was run: as §1
# [12] = biological target: Fuc(a1-2)Gal(b1-3)GlcNAc(b1-3)[Neu5Ac(a2-6)Gal(b1-4)GlcNAc(b1-6)]Gal(b1-4)Glc
# How it was run: as §1
# [13] = biological target: Fuc(a1-2)Gal(b1-3)GlcNAc6S
# How it was run: as §1
# [14] = biological target: Fuc(a1-2)Gal(b1-3)[Fuc(a1-4)]GlcNAc
# How it was run: as §1
# [15] = biological target: Fuc(a1-2)Gal(b1-3)[Fuc(a1-4)]GlcNAc(b1-2)Man(a1-3)[Fuc(a1-2)Gal(b1-3)[Fuc(a1-4)]GlcNAc(b1-2)Man(a1-3)]Man(b1-4)GlcNAc(b1-4)GlcNAc
# How it was run: as §1
# [16] = biological target: Fuc(a1-2)Gal(b1-3)[Fuc(a1-4)]GlcNAc(b1-2)Man(a1-3)[Fuc(a1-2)Gal(b1-3)[Fuc(a1-4)]GlcNAc(b1-2)Man(a1-6)]Man(b1-4)GlcNAc(b1-4)[Fuc(a1-6)]GlcNAc(b1-4)[Fuc(a1-6)]GlcNAc
# How it was run: as §1
# [17] = biological target: Fuc(a1-2)Gal(b1-3)[Fuc(a1-4)]GlcNAc(b1-3)[Fuc(a1-3)[Gal(b1-4)]GlcNAc(b1-6)]Gal(b1-4)Glc
# How it was run: as §1
# [18] = biological target: Fuc(a1-2)Gal(b1-3)[Fuc(a1-4)]GlcNAc(b1-3)[Gal(b1-4)GlcNAc(b1-6)]Gal(b1-4)Glc
# How it was run: as §1
# [19] = biological target: Fuc(a1-2)Gal(b1-4)Fuc(a1-3)]GlcNAc(b1-2)Man(a1-3)[Fuc(a1-2)Gal(b1-4)[Fuc(a1-3)]GlcNAc(b1-2)Man(a1-6)]Man(b1-4)GlcNAc(b1-4)GlcNAc
# How it was run: as §1
# Fuc(a1-2)Gal(b1-4)Glc = biological target: Fuc(a1-2)Gal(b1-4)Glc
# How it was run: as §1
# Fuc(a1-2)Gal(b1-4)Glc6S = biological target: Fuc(a1-2)Gal(b1-4)Glc6S
# How it was run: as §1
# Fuc(a1-2)Gal(b1-4)GlcNAc = biological target: Fuc(a1-2)Gal(b1-4)GlcNAc
# How it was run: as §1
# [20] = biological target: Fuc(a1-2)Gal(b1-4)GlcNAc(b1-2)Man
# How it was run: as §1
# [21] = biological target: Fuc(a1-2)Gal(b1-4)GlcNAc(b1-2)Man(a1-3)[Fuc(a1-2)Gal(b1-4)GlcNAc(b1-2)Man(a1-6)]Man(b1-4)GlcNAc(b1-4)GlcNAc
# How it was run: as §1
# [22] = biological target: Fuc(a1-2)Gal(b1-4)GlcNAc(b1-2)Man(a1-3)[Fuc(a1-2)Gal(b1-4)GlcNAc(b1-2)Man(a1-6)]Man(b1-4)GlcNAc(b1-4)[Fuc(a1-6)]GlcNAc
# How it was run: as §1
# [23] = biological target: Fuc(a1-2)Gal(b1-4)GlcNAc(b1-2)[Fuc(a1-2)Gal(b1-4)GlcNAc(b1-4)]Man(a1-3)[Fuc(a1-2)Gal(b1-4)GlcNAc(b1-2)Man(a1-6)]Man(b1-4)GlcNAc(b1-4)GlcNAc
# How it was run: as §1
# [24] = biological target: Fuc(a1-2)Gal(b1-4)GlcNAc(b1-3)Gal(b1-4)GlcNAc
# How it was run: as §1
binder,measurement,setting,value
B1,glycan array binding signal (z-score),Fuc(a1-2)Gal,0.338
same,glycan array binding signal (z-score),Fuc(a1-2)Gal(b1-3)GalNAc,0.117
same,glycan array binding signal (z-score),[1],-0.535
same,glycan array binding signal (z-score),[2],-0.701
same,glycan array binding signal (z-score),[3],-0.3
same,glycan array binding signal (z-score),[4],-0.368
same,glycan array binding signal (z-score),[5],0.463
same,glycan array binding signal (z-score),Fuc(a1-2)Gal(b1-3)GlcNAc,-0.85
same,glycan array binding signal (z-score),[6],0.426
same,glycan array binding signal (z-score),[7],0.053
same,glycan array binding signal (z-score),[8],0.042
same,glycan array binding signal (z-score),[9],-0.024
same,glycan array binding signal (z-score),[10],-0.339
same,glycan array binding signal (z-score),[11],-0.343
same,glycan array binding signal (z-score),[12],0.28
same,glycan array binding signal (z-score),[13],-0.439
same,glycan array binding signal (z-score),[14],-0.288
same,glycan array binding signal (z-score),[15],0.142
same,glycan array binding signal (z-score),[16],0.621
same,glycan array binding signal (z-score),[17],-0.659
same,glycan array binding signal (z-score),[18],0.746
same,glycan array binding signal (z-score),[19],0.179
same,glycan array binding signal (z-score),Fuc(a1-2)Gal(b1-4)Glc,-0.198
same,glycan array binding signal (z-score),Fuc(a1-2)Gal(b1-4)Glc6S,-0.115
same,glycan array binding signal (z-score),Fuc(a1-2)Gal(b1-4)GlcNAc,0.165
same,glycan array binding signal (z-score),[20],-0.48
same,glycan array binding signal (z-score),[21],-0.183
same,glycan array binding signal (z-score),[22],-0.417
same,glycan array binding signal (z-score),[23],-0.149
same,glycan array binding signal (z-score),[24],-0.638
